Screen size: about 340,000 compounds; about 12,000 (3.5%) were called active. Inconclusive results, whose numbers are uncertain, are shown with a selection of clear calls. Calls come from the whole dose curve; as a rule, active = well fitted inhibition curve with a large enough effect; inconclusive = small, poorly fitted or top-dose-only effect, or another doubt; inactive = no such curve, though single readings can be large or run the other way. No potency is given beside an inconclusive call; the fits are too rough.
Experiment: qHTS Assay for Inhibitors of Hepatitis C Virus (HCV)
Settings: Huh7.5.1 HCVcc-Cre (HCVcc is cell-culture hepatitis C virus) infection, luciferase reporter, 44 h; series mostly up to 41.8 µM
Outline: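 HCVcc-Cre virus at an moi near 0.5 was added right after compound to cells cultured 4 h from seeding (1,000 cells/well). Luciferase activity was determined 44 h later, 15 min after substrate addition at RT.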
Potency is the fitted concentration of half-maximal effect; tags give direction and shape of the fitted curve.

SMILES	Potency
NC(=O)CC(NC(=O)Cc1ccc(Br)cc1)c1ccc(NCc2ccccn2)c([N+](=O)[O-])c1 (stereo unspecified)	inconclusive [inhibitor, single point]
COc1ccc2oc(C(=O)OCC(=O)N(CCC#N)c3ccccc3)c(C)c2c1	inconclusive [inhibitor, single point]
O=C(COc1ccc([N+](=O)[O-])cc1)Nc1ccc(N2CCN(C(=O)c3ccco3)CC2)cc1	active: 11.2 µM
CN1C(=O)C(C)(C)c2cc(S(=O)(=O)N3CCCC(C(=O)NCc4ccc(F)cc4)C3)ccc21 (stereo unspecified)	inconclusive [inhibitor, partial curve, poor fit]
Cc1c(CCOC(=O)CC23CC4CC(CC(C4)C2)C3)sc[n+]1CC(=O)c1ccccc1	active: 11.2 µM
O=C(Nc1ccc(Cl)c(Cl)c1)Nc1nnc(-c2ccncc2)s1	active: 8.91 µM
CCc1nc(Nc2ccccc2OC)c2oc3ccccc3c2n1	inconclusive [inhibitor, partial curve]
S=C(NC1CCCCC1)N1CCc2ccccc2C1	inconclusive [inhibitor, partial curve]
COc1ccc(CN2CCN(C(=O)c3ccc(CNS(=O)(=O)c4ccc(C)cc4)cc3)CC2)c(OC)c1OC	inactive
Cc1cc(C)n(-c2ccc(C(=O)N3CC(C)OC(C)C3)cc2)n1 (stereo unspecified)	inactive
COc1cc([N+](=O)[O-])cc(/C=N/NC(=O)c2ccc(NC(=O)c3ccc(C)cc3)cc2)c1O	active: 2.51 µM
COc1ccc(NC2=C(NC(C)=O)C(=O)c3ccccc3C2=O)cc1	inconclusive [inhibitor, partial curve, poor fit]
N=C(N=C(N)N)N1CCc2ccccc21	inconclusive [inhibitor, single point]
CCC(=O)c1cc2c(cc1NC(=O)c1cccs1)OCCO2	inconclusive [inhibitor, full curve]
OCCN1CCN(CC(O)COc2ccc(C34CC5CC(CC(C5)C3)C4)cc2)CC1 (stereo unspecified)	active: 12.6 µM
Cn1c(=O)n(C)c2cc(NS(=O)(=O)c3ccc(C(C)(C)C)cc3)ccc21	inconclusive [inhibitor, partial curve]
Cc1occc1C(=O)N1CCN(C(=O)C2CCCO2)CC1 (stereo unspecified)	inactive
CC(=O)Nc1ccc(Nc2nc3c(S(=O)(=O)c4ccc(C)c(C)c4)nnn3c3ccccc23)cc1	inconclusive [inhibitor, partial curve]
CC1CC(C)(C)CC2(C1)NC(=O)N(CC(=O)N(Cc1ccccc1)c1ccccc1)C2=O (stereo unspecified)	inactive
COc1ccccc1NCC(=O)NNC(C)C(=O)Nc1cccc(Cl)c1 (stereo unspecified)	inconclusive [inhibitor, partial curve]
COc1ccccc1NC(=O)c1ccc(NC(=O)CN(C)Cc2ccccc2F)cc1	inconclusive [inhibitor, full curve]
Clc1ccc(CN2C3=NCCCN3c3ccccc32)c(Cl)c1	inconclusive [inhibitor, partial curve]
Cc1ccc2nc(NCc3ccccc3)[nH]c2c1	inconclusive [inhibitor, full curve, poor fit]
Cc1ccc(S(=O)(=O)N(C)c2ccc(C(=O)N3CCCCC3)cc2)cc1	inconclusive [inhibitor, single point]

SMILES	Potency
O=C(NC1CCCCCC1)c1c2c(nc3ccccc13)CCN(Cc1ccccc1)C2	inconclusive [inhibitor, single point]
CC(=O)c1cnc(Nc2nc(C)c3cc(C)c(C)cc3n2)nc1C	inactive
COc1ccc(-c2csc3ncnc(N4CCN(c5ccccc5Cl)CC4)c23)cc1	inconclusive [inhibitor, partial curve]
CCN(CC(=O)Nc1c(F)cccc1F)C(=O)c1cc([N+](=O)[O-])ccc1N1CCCCC1	inconclusive [inhibitor, partial curve, poor fit]
O=C(CCN1C(=O)c2ccccc2C1=O)NCc1ccccc1	inactive
CCN1CCN(c2ncc(C(=O)Nc3cc(Cl)ccc3OC)c3ccccc23)CC1	inconclusive [inhibitor, full curve]
Cc1cc(C)nc(N/N=C/c2cc(Br)ccc2O)n1	inconclusive [inhibitor, single point]
N/C(COc1cccc(Cl)c1)=N\NS(=O)(=O)c1ccccc1	inconclusive [inhibitor, single point]
C#CCN1C=CC(=O)[C@@H](OC(=O)Nc2ccc(Br)cc2)[C@H]1c1ccccc1Br	inconclusive [inhibitor, single point]
Cc1nc(SCC(=O)N2CC(=O)Nc3ccccc32)nc(C)c1C	inactive
COc1ccc(SCC2CN(C)CCC2c2ccc(F)cc2)cc1 (stereo unspecified)	active: 11.2 µM
CSc1nc(NC(C)(C)C)nc(N2CCOCC2)n1	inconclusive [inhibitor, single point]
O=C1C2CCCN2C(=O)N1CCCCN1CCN(CCO)CC1 (stereo unspecified)	inactive
S=C(NCCc1cccc(Cl)c1)NC1CCCCC1	inconclusive [inhibitor, single point]
COc1cc(CNCCCN2CCOCC2)c(Br)cc1OC(C)C	inconclusive [inhibitor, single point]
COc1ccc(OC)c(CNc2ccc3c(c2)nc(C)n3C)c1	inactive
O=C(CCl)Nc1cccc2ncccc12	active: 12.6 µM
Cc1ccc(NC(=O)CCSc2nc(C)cc(C)n2)cc1	inactive
COc1ccc(Cl)cc1NC(=O)N1CCC(C)CC1	inconclusive [inhibitor, single point]
COc1ccc(NC(=O)CN2CCN(c3nc(-c4cccc(OC)c4)cs3)CC2)cc1	inconclusive [inhibitor, full curve]
COc1ccc(C)cc1NC(=O)CCCN1C(=O)C(c2ccccc2)Oc2cccnc21 (stereo unspecified)	inconclusive [inhibitor, partial curve]
COc1ccc(N2CCN(C(=O)CN3c4cccc5cccc(c45)S3(=O)=O)CC2)cc1	inconclusive [inhibitor, single point]
Cc1ccc(C(=O)N/C(=C/c2ccco2)C(=O)Nc2cccc(C)c2)cc1	inconclusive [inhibitor, partial curve]
CCOc1ccccc1N1CCN(CC(=O)Nc2ccccc2C(=O)NC2CC2)CC1	inconclusive [inhibitor, single point]

SMILES	Potency
CCC1(CC)NC(=O)N(CC(=O)Nc2sc3c(c2C(N)=O)CCC3)C1=O	inconclusive [inhibitor, single point]
COc1ccccc1Oc1ccc2c(c1)C(=O)N(c1cccc3ncccc13)C2=O	inconclusive [inhibitor, single point]
COC(=O)c1c(-c2ccc(OC)cc2)sc2ccc(-c3ccc4c(c3)OCO4)cc12	inactive
Fc1ccc(NC(=S)Nc2ccccc2Cl)cc1	inactive
Cc1cccc(NC(=O)CN2C(=O)CCS(=O)(=O)c3ccccc32)c1C	inactive
COc1cc(OC)cc(C(=O)N[C@H](C(=O)Nc2ccc(S(=O)(=O)N(C)C)cc2)C(C)C)c1	inconclusive [inhibitor, single point]
CC(CCc1ccccc1)NC(=O)CNC(=S)N(Cc1cccs1)C1CCCC1 (stereo unspecified)	inconclusive [inhibitor, single point]
Cc1cc(Cl)c(OCCCCN2CCOCC2)c(Br)c1	inactive
Nc1nccc(-c2ccc(-n3cccc3)cc2)n1	inactive
COc1ccccc1Cn1c(=S)[nH]c2cc(C(=O)NCCN(C)C)ccc2c1=O	inconclusive [inhibitor, single point]
CCSc1nc(N)c(C#N)c(-c2ccco2)c1C#N	inconclusive [inhibitor, full curve]
Cc1nn(CCCC(=O)NCc2ccccc2)c(=O)c2nccn12	inactive
O=C1CCC(=O)N1OCCOc1ccc(Cl)c2ccccc12	inactive
CCc1cccc(Nc2cc(C)nc3nc(C)nn23)c1	inactive
CCN1C[C@@H]2[C@@H]3C(=O)N(C)C(=O)[C@@H]3[C@](CC)(C1=O)N2C(=O)c1ccc(C(F)(F)F)cc1	inconclusive [inhibitor, single point]
COc1ccc(COCCN2CCN(S(=O)(=O)c3ccc(C)cc3)CCC2=O)cc1	inconclusive [inhibitor, single point]
CN(CC(=O)Nc1ccccc1Br)C(=O)c1sccc1-c1ccccc1	inconclusive [inhibitor, partial curve]
COC(=O)c1c(C)[nH]c(C)c1-c1ccc([N+](=O)[O-])cc1	inconclusive [inhibitor, single point]
COc1ccc(-c2cc(C)no2)cc1S(=O)(=O)N1CCN(c2ccccn2)CC1	active: 12.6 µM
COc1cc2c(cc1OC)C(C)N(C(=S)Nc1ccccc1)CC2 (stereo unspecified)	inactive
C=CCn1c(SCC(C)=O)nc2scc(-c3ccc(C)o3)c2c1=O	inactive
CCOC(=O)Cc1csc(NC(=O)COc2ccc(N(C)S(=O)(=O)c3ccc(C)cc3)cc2)n1	inconclusive [inhibitor, single point]
N#CC(C#N)=CC1=C2OC(c3ccccc3)=CC(c3ccccc3)=C2CCC1	inconclusive [inhibitor, full curve, poor fit]
